Tested on: A549 lung adenocarcinoma xenografts
Experiment: Animal survival study in vivo, A549 lung adenocarcinoma xenograft model
Set-up: species or system SCID beige mice
Description: Partially fucosylated GlycArt-mAb was provided as stock solution (c=11.3 mg/ml), in a buffer containing histidine, trehalose and polysorbate 20. The antibody stock solution was appropriately diluted in PBS prior to injection.
The antibody concentration was adjusted by dilution of the reconstituted stock solution prior to injection.
Irinotecan/CPT-11 (Campto®) was purchased as clinical formulation (20 mg/ml) from Pfizer Pharma GmbH, Karlsruhe, Germany. The antibody concentration was adjusted by dilution of the reconstituted stock solution prior to injection.
A549 human Non Small Cell Lung Cancer (NSCLC) cells were obtained from ATCC. The tumor cell line was routinely cultured in RPMI medium (PAA Laboratories, Austria) supplemented with 10% fetal bovine serum (PAA Laboratories, Austria) and 2 mM L-glutamine, at 37° C. in a water-saturated atmosphere at 5% CO2.
Passage 3 of A549 cells was used for in vivo injection. 2×10^6 cells in PBS were injected intravenously (i.v.).
Female SCID beige mice; age 7-8 weeks at arrival (purchased from Charles River, Sulzfeld, Germany) were maintained under specific pathogen-free conditions with daily cycles of 12 h light/12 h darkness according to committed guidelines (GV-Solas; Felasa; TierschG). […]
The primary parameter was survival. The data was statistically analyzed by log rank test.

B1: GlycArt-mAb: humanized anti-EGFR IgG1 antibody with heavy chain variable domain SEQ ID NO:38, light chain variable domain SEQ ID NO:39, human Ig gamma-1 constant region SEQ ID NO:40 (antibody, listed as Homo sapiens)
VH: QVQLVQSGAEVKKPGSSVKVSCKASGFTFTDYKIHWVRQAPGQGLEWMGYFNPNSGYSTYAQKFQGRVTITADKSTSTAYMELSSLRSEDTAVYYCARLSPGGYYVMDAWGQGTTVTVSS
VL: DIQMTQSPSSLSASVGDRVTITCRASQGINNYLNWYQQKPGKAPKRLIYNTNNLQTGVPSRFSGSGSGTEFTLTISSLQPEDFATYYCLQHNSFPTFGQGTKLEIKRT
chain: [about 350 residues with a human IgG1 Fc omitted]
modifications: partial fucosylation
- p (log rank test), survival compared to vehicle control (antibodies 25 mg/kg i.p. every seven days, irinotecan 20 mg/kg i.p. four times, single agents or combinations): 0.0005
- animal survival compared to vehicle control (single agents, antibodies 25 mg/kg i.p. every seven days (day 7-98), irinotecan 20 mg/kg i.p. day 7, 10, 14, 17, A549 cells injected i.v.): significantly prolonged animal survival
